Here are results for one molecule from publication PMC7511005.

These are yes or no findings as the source states them, for the method shown. Some binding calls cover weakened binding; strength is not graded here. Where a sequence is shown, tags or fusion partners need not be part of it.

For assay [1], the target named is T1, EHD1 aa1-439, yeast two-hybrid fusion (UniProt Q9H4M9).
T1 sequence: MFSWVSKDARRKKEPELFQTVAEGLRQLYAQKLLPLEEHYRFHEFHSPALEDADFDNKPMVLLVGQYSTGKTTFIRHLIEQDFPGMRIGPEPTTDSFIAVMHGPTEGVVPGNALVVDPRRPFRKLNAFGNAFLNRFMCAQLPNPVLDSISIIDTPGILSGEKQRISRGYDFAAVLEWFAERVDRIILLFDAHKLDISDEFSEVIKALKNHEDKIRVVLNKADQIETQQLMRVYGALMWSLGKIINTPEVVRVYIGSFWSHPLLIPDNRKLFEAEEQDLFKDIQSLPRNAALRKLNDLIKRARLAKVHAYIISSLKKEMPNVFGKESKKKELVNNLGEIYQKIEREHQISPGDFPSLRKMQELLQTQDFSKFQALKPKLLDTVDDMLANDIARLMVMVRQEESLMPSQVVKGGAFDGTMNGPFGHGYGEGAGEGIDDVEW
The experiment in a line: two-hybrid; AH109 yeast co-transformed with pGADT7 and pGBKT7 fusions; growth on -His plates, 30°C, 72 h.

In assay [2] the target is T2, EHD2, yeast two-hybrid fusion (UniProt Q9NZN4).
T2 sequence: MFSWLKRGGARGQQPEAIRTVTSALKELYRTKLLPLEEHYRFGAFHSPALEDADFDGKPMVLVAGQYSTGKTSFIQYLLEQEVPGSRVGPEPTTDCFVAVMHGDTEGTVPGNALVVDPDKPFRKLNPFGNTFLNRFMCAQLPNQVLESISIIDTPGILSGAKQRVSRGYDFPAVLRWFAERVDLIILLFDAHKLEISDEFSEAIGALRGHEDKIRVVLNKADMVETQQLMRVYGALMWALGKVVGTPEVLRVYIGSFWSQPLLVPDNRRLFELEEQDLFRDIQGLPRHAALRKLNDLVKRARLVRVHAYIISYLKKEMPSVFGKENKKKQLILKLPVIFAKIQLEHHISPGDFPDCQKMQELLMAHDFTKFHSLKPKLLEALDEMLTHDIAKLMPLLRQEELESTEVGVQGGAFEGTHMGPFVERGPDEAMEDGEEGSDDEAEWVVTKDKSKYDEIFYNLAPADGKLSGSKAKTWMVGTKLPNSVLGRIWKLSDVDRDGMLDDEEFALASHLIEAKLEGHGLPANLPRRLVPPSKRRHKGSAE
Described as above.

B1: EHD4, yeast two-hybrid fusion (protein, UniProt Q9H223 1-541)
chain: MFSWMGRQAGGRERAGGADAVQTVTGGLRSLYLRKVLPLEEAYRFHEFHSPALEDADFENKPMILLVGQYSTGKTTFIRYLLEQDFPGMRIGPEPTTDSFIAVMYGETEGSTPGNALVVDPKKPFRKLSRFGNAFLNRFMCSQLPNQVLKSISVIDSPGILSGEKQRISRGYDFCQVLQWFAERVDRIILLFDAHKLDISDEFSEAIKAFRGQDDKIRVVLNKADQVDTQQLMRVYGALMWSLGKVINTPEVLRVYIGSFWAQPLQNTDNRRLFEAEAQDLFRDIQSLPQKAAVRKLNDLIKRARLAKVHAYIISYLKKEMPSVFGKENKKRELISRLPEIYIQLQREYQISAGDFPEVKAMQEQLENYDFTKFHSLKPKLIEAVDNMLSNKISPLMNLISQEETSTPTQLVQGGAFDGTTEGPFNQGYGEGAKEGADEEEWVVAKDKPVYDELFYTLSPINGKISGVNAKKEMVTSKLPNSVLGKIWKLADCDCDGMLDEEEFALAKHLIKIKLDGYELPSSLPPHLVPPSHRKSLPKAD
Regarding B1, the binding entry was “binds” in assay [1] and “no binding” in assay [2].
